PubChem BioAssay AID886 (National Center for Advancing Translational Sciences (NCATS), 2007)
About 2,500 (3.4%) of roughly 73,000 compounds were called active. The shares of active, inactive and inconclusive entries below differ from those in the screen. Calls come from the whole dose curve; as a rule, active = well fitted inhibition curve with a large enough effect; inconclusive = small, poorly fitted or top-dose-only effect; inactive = no such curve, though single readings can be large or run the other way. Potencies of inconclusive entries are doubtful fits and often do not repeat.

Target: 3-hydroxyacyl-CoA dehydrogenase type-2 (Homo sapiens) (UniProt Q99714)
Chain of UniProt Q99714 (Q99714 whole entry, looked up): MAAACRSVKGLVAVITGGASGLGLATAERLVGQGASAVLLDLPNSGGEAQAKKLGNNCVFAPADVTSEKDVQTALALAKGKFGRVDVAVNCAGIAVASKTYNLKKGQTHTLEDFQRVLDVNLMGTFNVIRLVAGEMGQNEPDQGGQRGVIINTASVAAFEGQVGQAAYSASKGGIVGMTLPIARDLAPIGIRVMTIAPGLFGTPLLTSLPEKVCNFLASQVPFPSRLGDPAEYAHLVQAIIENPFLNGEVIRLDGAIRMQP
Chain of UniProt Q99714 (Q99714 whole entry, looked up): as above
Experiment: qHTS Assay for Inhibitors of HADH2 (Hydroxyacyl-Coenzyme A Dehydrogenase, Type II); note: nearly all actives have a fitted effect of over 60% in size
Conditions: recombinant HADH2, NADH fluorescence, beta-hydroxybutyryl-CoA; activity change, negative = inhibition: at 57.1 µM (top of the series)
Text: Assay Overview: NIH Molecular Libraries Screening Centers Network [MLSCN] NIH Chemical Genomics Center [NCGC] Structural Genomics Consortium [SGC] Grant Number: None HADH2: Hydroxyacyl-Coenzyme A dehydrogenase, type II, was supplied by researchers at the Structural Genomics Consortium, Oxford University lab (PI Udo Oppermann). The mitochondrial enzyme 17-hydroxysteroid dehydrogenase type 10 (HSD17-10) previously classified as type II hydroxyacyl-CoA dehydrogenase (HADH2) catalyzes the NAD+ dependent oxidation of a variety of substrates including acyl-CoAs, androgens and neurosteroids as well as bile acids(Shafqat N, Marschall HU, Filling C, et al. Biochemical Journal. 2003;376(Pt 1):49-60). The role in neurodegeneration by binding to amyloid-peptide led to its identification (Oppermann UC, et al FEBS Letters. 1999;451(3):238-242 and Yan SD, et al. Nature. 1997;389(6652):689-695), and mutations in its gene appear to be causative for 2-methyl-3-hydroxybutyryl-CoA dehydrogenase deficiency (Ofman R, et al. American Journal of Human Genetics. 2003;72(5):1300-1307). The enzyme was produced by E.coli fermentation as His-tagged recombinant for the purpose of X-ray structure determination, and had been mass-spectrometry characterized. Inhibition of HADH2 activity was screened by utilizing beta-hydroxybutyryl coenzyme A as an electron donor and NAD+ as an electron acceptor/cofactor. An increase in the fluorescence intensity due to conversion of NAD+ to NADH was used to measure the enzyme activity.
Assay Protocol: Buffer: 100 mM Tris-HCl pH 9.0, containing 0.01 % Tween-20. Reagents/Controls: Buffer in columns 3 and 4 as negative control (no enzyme). Substrate/cofactor solution: 1 mM NAD+ and 90 uM beta-hydroxybutyryl coenzyme A (Sigma-Aldrich, St. Louis, MO) final concentrations dispensed throughout the plate. Enzyme: 20 nM HADH2 final concentration in columns 1, 2, 5-48. Column 1 is neutral (100% activity). Column 2 contained titration of apomorphine (Sigma-Aldrich, A 4393, PubChem CID 2215, top concentration 500 uM, then 1:2 dilution in duplicate) Assay Steps: Three uL of enzyme were dispensed to 1536-well Greiner black solid bottom plates. Compounds and controls (23 nL) were transferred via Kalypsys PinTool. The plates were incubated for 15 min at room temperature, and then 1 uL of substrate/cofactor solution was added to start the reaction. The plates were immediately transferred to and read every 30 seconds for 4 min on ViewLux High-throughput CCD imager (Perkin-Elmer) using 360 nm excitation and 450 nm emission fluorescence protocol. The fluorescence intensity difference between the last and the first time points was used to compute reaction progress.
% is set by controls: 0 for no effect and ±100 for the full control effect; potency is the fitted concentration of half-maximal effect; tags give direction and shape of the fitted curve.

Structure (SMILES) | Potency | activity change, negative = inhibition
CCOc1cc(C2CC(=O)NC3=C2C(=O)C(C(=O)OC)C(C)C3)cc(Cl)c1O (stereo not drawn) | inconclusive: 25.1 µM [inhibitor, single point] | –
Cc1cc(NCCN2CCOCC2)n2nc(C)c(-c3ccc(Cl)cc3)c2n1 | – | inactive: 29%
CCN1CCN(C(=O)c2cc3c(-c4ccc(Cl)cc4)nn(C)c3s2)CC1 | – | inactive: -15.7%
Cc1cc(N2CCN(c3nc4ccccc4s3)CC2)n2ncnc2n1 | inconclusive: 0.158 µM [inhibitor, single point] | –
S=c1nc(C2CCCCC2)[nH][nH]1 | inconclusive: 31.6 µM [inhibitor, single point] | –
Cc1ccc(S(=O)(=O)Nn2c(C)ccc2C)cc1 | inconclusive: 6.31 µM [inhibitor, full curve] | –
CCOC(=O)/C=C1\NC(C)(C)Cc2cc(OC)c(O)cc21 | – | inactive: -7.26%
COc1ccc2[nH]c(=O)c(CN(C(=O)C3CCCO3)c3cccc(C)c3)cc2c1 (stereo not drawn) | – | inactive: -18.6%
NC(=O)c1oc2ccc(Cl)cc2c1N | active: 31.6 µM | –
N#Cc1cccc(NC(=O)N2CC[C@@]3(CCCN(C(=O)c4cnccn4)C3)C2)c1 | inconclusive: 39.8 µM [inhibitor, single point] | –
COc1ccc(N(CC(=O)Nc2ccc3c(c2)OCCO3)S(=O)(=O)c2cccnc2)cc1 | – | inactive: -0.687%
COc1ccc2[nH]cc(CCNc3nc(-c4cccnc4)nc4ccccc34)c2c1 | inconclusive: 7.94 µM [inhibitor, partial curve] | –
O=C1CCCc2nn(-c3ccccc3)c(-c3ccncc3)c21 | – | inactive: 2.05%
CCOC(=O)N1CCN(C(=O)c2ccc3nc4cc(Cl)ccc4c(=O)n3c2)CC1 | inconclusive: 31.6 µM [inhibitor, single point] | –
CC1=[N+]([O-])C(C)(C)C(C)N(O)C1=O (stereo not drawn) | inconclusive: 3.16 µM [inhibitor, single point] | –
O=C(CSc1nnc(-c2cccs2)o1)N1CCc2ccccc21 | inconclusive: 31.6 µM [inhibitor, single point] | –
CCSC1=C(C#N)C(=O)n2c1cc1c2CCCC1 | inconclusive: 15.8 µM [inhibitor, partial curve] | –
Cc1c(C(=O)NC2=NCCS2)oc2ccccc12 | active: 25.1 µM | –
N#CC1=C2SCN(c3ccccc3)CN2C(=O)CC1c1c(Cl)cccc1Cl (stereo not drawn) | active: 1 µM | –
COc1ccc(N2CSC3=C(C#N)C(c4cc(OC)c(OC)cc4OC)CC(=O)N3C2)c(OC)c1 (stereo not drawn) | active: 1.58 µM | –
O=c1cc(-c2ccccc2)oc2c1ccc1ccccc12 | inconclusive: 39.8 µM [inhibitor, single point] | –
Cc1cccn2c(=O)c3cc(C#N)c(=O)n(CCCN4CCOCC4)c3nc12 | active: 31.6 µM | –
COc1ccc2cc3cc(C(=O)NCC4COc5ccccc5O4)oc3nc2c1 (stereo not drawn) | active: 31.6 µM | –
CCOC(=O)Cc1csc(NC(=O)CS(=O)(=O)Cc2ccccc2)n1 | active: 15.8 µM | –

Structure (SMILES) | Potency | activity change, negative = inhibition
Cc1nn2c3c(cnc2c1-c1ccccc1)C(=O)CCC3 | – | inactive: -8.46%
Cn1c(=O)c2c(nc(CN3CCCCC3)n2Cc2c(F)cccc2Cl)n(C)c1=O | inconclusive: 31.6 µM [inhibitor, single point] | –
CCOC(=O)c1c(NC(=O)Cc2cccs2)sc(C)c1C | inconclusive: 25.1 µM [inhibitor, single point] | –
O=C(COc1ccc(S(=O)(=O)NC2CCCC2)cc1)N1CCCCCC1 | – | inactive: 0.735%
CCCSc1nc(C)c(-c2csc(C(C#N)=C3CCCC3)n2)cc1C#N | inconclusive: 10 µM [inhibitor, partial curve] | –
COc1ccccc1OCCOCCn1cnc2ccccc2c1=O | – | inactive: 8.68%
O=C(c1ccncc1)N1CCC2(CC1)CN(c1ccncc1)C2 | inconclusive: 3.16 µM [inhibitor, partial curve] | –
CCNc1nnc(-c2ccccc2OC)s1 | active: 20 µM | –
CC(C)(C)c1ccc(-c2noc(CCC(N)=O)n2)cc1 | – | inactive: 8.61%
COc1ccccc1-c1nnc2sc(COc3ccc(F)cc3)nn12 | inconclusive: 20 µM [inhibitor, single point] | –
CCCn1c(Nc2nc3ccccc3n2C)nc2ccccc21 | inconclusive: 39.8 µM [inhibitor, single point] | –
N#Cc1c(N)oc(-c2ccccc2)c1-c1ccccc1 | inconclusive: 39.8 µM [inhibitor, single point] | –
CC(C)C[C@@H](CC(=O)N[C@@H](CCC(=O)O)CC(=O)O)NC(=O)[C@@H]1CCCC[C@H]1NC(=O)C[C@H](CCCN)NC(=O)C[C@H](CO)NC(=O)[C@@H]1CNCC[C@H]1N | – | inactive: -4.43%
COc1ccccc1-n1c(SCC(N)=O)nnc1-c1ccccc1 | – | inactive: -1.7%
N#CC(c1nc2ccccc2nc1N1CCCC1)S(=O)(=O)c1ccccc1 (stereo not drawn) | active: 25.1 µM | –
CCCNC(=O)OC[C@@H]1O[C@H](CCO/N=C(\C)CCC(=O)OC[C@@H]2O[C@H](c3ccccc3)C=C[C@@H]2Oc2ccc(OC)cc2)C=C[C@@H]1Oc1ccc(OC)cc1 | – | inactive: 7.18% [at 11.4 µM]
COc1ccc(CCNc2oc(-c3ccc(OC)c(OC)c3)nc2C#N)cc1 | active: 31.6 µM | –
Cc1nc2cc(N3CCCCC3)c(NC(=O)c3cccnc3)cc2c(=O)n1Cc1ccccc1 | – | inactive: 19.1%
COc1cc(O)c(NC(C)=O)c2nonc12 | inconclusive: 15.8 µM [inhibitor, partial curve] | –
CCOC(=O)C(C(=O)OCC)C1N=C(N)N=C2Oc3ccccc3N21 (stereo not drawn) | inconclusive: 6.31 µM [inhibitor, single point] | –
O=C(C1CCN(c2ccc(N3CCOCC3)nn2)CC1)N1CCN(c2ccc(F)cc2)CC1 | inconclusive: 39.8 µM [inhibitor, single point] | –
COCCNc1nc(-c2ccc(N(C)C)cc2)nc2ccccc12 | inconclusive: 12.6 µM [inhibitor, partial curve] | –
CN1CC[C@@]2(CCCN(C(=O)c3cc(C(F)(F)F)cc(C(F)(F)F)c3)C2)C1 | – | inactive: 2.92%
COC(=O)C/C=C\[C@@H](C)[C@@H](/C=N\O[C@@H]1O[C@H](COC(C)=O)[C@@H](OC(C)=O)[C@H](OC(C)=O)[C@H]1OC(C)=O)NS(=O)(=O)c1ccc(C)cc1 | – | inactive: 6.42% [at 11.4 µM]
